In the supplement of paper PMC11417369:
± gives the standard deviation of the averaged measurements. The list shows a part of the results.

Tested on: PfAP2-LT AP2 domain (GST-tagged)
Assay: gcPBM binding intensity (ln(normalized median fluorescence intensity)); higher = stronger DNA binding
Summary of the method: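 Using an Agilent 4 × 180k array, primer-extended double-stranded 36-bp intergenic genomic probes and negative controls were exposed for 1 h to GST-fused P. falciparum DNA-binding domains expressed in E. coli. Binding was carried out in 1× PBS with 1% milk, 0.2 mg/ml BSA, 0.5% salmon testes DNA and 0.03% Triton X-100, and protein was detected with Alexa488 anti-GST antibody and a 488 nm scan. Binding intensity is the highest Masliner-normalised natural-log median intensity across replicate spots of either probe orientation.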

Sequence | gcPBM binding intensity (ln)
TTCAATAGTAAGTATACACACATATATATATATAAA [CACACA_site2687] | 9.14 ± 0.35
CAAGCTATGTATTCTACACACACATACACCCATATA [CACACA_site9133] | 9.52 ± 0.29
TTTTTAAAAATATACACACACAGATATTATAGATAT [CACACA_site6511] | 9.14 ± 0.21
TTTCTTTTTTTTTTTTCATTGATCCATTTATGATTA [TGCATGCA_negctrl_site225] | 8.52 ± 0.56
TTATAGGTTCTATACATATATTTATATATGTACAGA [CACACA_negctrl_site60] | 8.55 ± 0.41
TATGAAAAAATATATACACACATAATAAAGGTATAT [CACACA_site3737] | 9.1 ± 0.38
TTTGTTTTAAATATTATACACACGTAAAAGTATAAT [CACACA_site7954] | 8.7 ± 0.36
TAATATTATATATAAACACACATACCCATGTAAATA [CACACA_site5170] | 8.98 ± 0.33
TCGTACTTGTATTATGCACACATATAATTAAACATA [CACACA_site9089] | 8.97 ± 0.32
AAAAAAAAAAATATATTATTTTACTTGTTTATTTTT [GTGCAC_negctrl_site435] | 8.43 ± 0.52
AATAATCAAATATTAAAAATTGTGCAAAAAAAAAAA [XGTACX_negctrl_site399] | 8.78 ± 0.51
ATATATATATATATATGTACATAATAATATATATTA [XGTACX_site111] | 9.09 ± 0.47
TAAAAGGTGTATATAATACACACGTGGGATTAGAAT [CACACA_site610] | 9.18 ± 0.42
AAAATAAACAATGAACAATAAACAATGAACAATGAA [CACACA_negctrl_site1194] | 9.05 ± 0.49
TATATAAAGCATTGTAGTACTACCAATATTTTTTTT [XGTACX_site3523] | 8.7 ± 0.58
AAAAAATATACATATACACACATATGTATATAGAAT [CACACA_site2170] | 9.15 ± 0.46
ATATGTTATATGTAATGTACTTTTGATGTATATATT [XGTACX_site8615] | 8.89 ± 0.52
AAAATATTATAAATTTGTACTTATAAATATTGTATA [XGTACX_site8165] | 8.47 ± 0.44
TAATAAATAAAATATGCACACAAATATAGGAAACAA [CACACA_site8820] | 9.24 ± 0.34

Sequence | gcPBM binding intensity (ln)
ATATATATAATATAATGTACGTATAATAATATGAGA [XGTACX_site2282] | 8.98 ± 0.42
CGTTATATATATAAAAGTACAAAAATTAAACATTCC [XGTACX_site4568] | 8.82 ± 0.55
ATATGTAAATAAATATGTACTCATTTATTATTTTAT [XGTACX_site8748] | 8.68 ± 0.49
ATATATACAAGTATTTTTTTTTCAAACATTATTTTT [CACACA_negctrl_site1808] | 8.49 ± 0.65
ATATGTATATTTTTTTGTACGTATTTATGTGTGTGT [XGTACX_site2093] | 9.81 ± 0.57
ATATTTTATGTGTTGGTGCACATCTTTATTTAAACT [GTGCAC_site9736] | 9.14 ± 0.48
TATTTGTAATATTATACACACATTATATATTACAAA [CACACA_site5804] | 8.79 ± 0.36
ATTTAAATAACGTATGTATATACATATATATATATA [TGCATGCA_negctrl_site207] | 9.41 ± 0.27
CGTAGCCACACTAACACACACAAATATACACAATCA [CACACA_site7379] | 9.64 ± 0.4
TATTTTGTATATAAATGTACAAGTATATATTTTTTC [XGTACX_site7855] | 8.56 ± 0.45
GATAAATGTATATATGCATGCACATATATTTATACA [TGCATGCA_site748] | 9.01 ± 0.27
TGCATTATTTACAAGGTGCGTTACAAATGTGTAACA [GTGCAC_site9442] | 8.58 ± 0.35
GCTTTAATCTGAAAGTGTACAGATAATATATTTATA [XGTACX_site2462] | 8.48 ± 0.42
TATGAATATTTGTATACATGCATATAGAAATCATAT [TGCATGCA_site533] | 8.76 ± 0.38
ATATATTATATATATATATATATATATTATTATTGT [TGCATGCA_negctrl_site286] | 9.18 ± 0.26
TATATATATATTTTTGCATGTAATTTTTATGAGGAC [TGCATGCA_site884] | 8.82 ± 0.43
TACTATAACGCACATACACACAAAAAAAAAAAAAAA [CACACA_site8073] | 9.04 ± 0.45
ATATGGTGATATAGGTGTACATTTTGATGCTTATTT [XGTACX_site4283] | 9.12 ± 0.26
TTATACATGAAATATTGTACACATATATATATATAT [XGTACX_site4378] | 9.22 ± 0.38

Sequence | gcPBM binding intensity (ln)
ATATATAGAATGTGTACACACATATGTATTTATATA [CACACA_site810] | 9.24 ± 0.51
ATTTTTTATGGACAAAAGACCTCTGATGTAAATATA [CACACA_negctrl_site1081] | 8.38 ± 0.4
TTTTTTTTTTTCTTAGTGCGCGTGAAAAATATAAAA | 8.2 ± 0.35
AATTAGATTATGCACACACACTTAAAAATAATAAAT [CACACA_site7015] | 9.49 ± 0.4
TTACTCAAACAAACAAAAAAAAAAAAAAAAAAAAAA [TGCATGCA_negctrl_site457] | 8.28 ± 0.42
TAAGTATAATATTGATGTACATATAATAACTTGTAT [XGTACX_site417] | 8.87 ± 0.48
AAAAATAAAAAAATGACACACATATATATATATATA [CACACA_site2307] | 9.85 ± 0.11
TATCTCTTATTTTATTGTACTTAACTATGCTATAAT [XGTACX_site4904] | 8.89 ± 0.58
AAGAGAAATTATAACATGTGAAATGTATTATATATA [TGCATGCA_negctrl_site254] | 8.77 ± 0.47
AAGGGAAAATTAAGGTTGCACTAAAAATATATCTTT [GTGCAC_site9608] | 8.52 ± 0.49
ATGAACATACAATATACACACATATATATTTATATT [CACACA_site4609] | 9.16 ± 0.47
TAGTTAACAAATAATGCACACAAATGGATAAAATTA [CACACA_site9240] | 9.11 ± 0.35
ATTCAAATTGTAGAAACACACAAAAACTTAACATAT [CACACA_site2617] | 8.94 ± 0.44
CATATGATATGTTATACACACACGTATATATGAATT [CACACA_site3446] | 9.26 ± 0.34
CTTTGTGTTAAAAGTAGTACACCAAAAATATGACTT [XGTACX_site622] | 8.69 ± 0.42
AGATACGATTATATGCGTTCAATATACCAAATAATT [TGCATGCA_negctrl_site501] | 8.81 ± 0.42
TTTTTCATCATATGTTGTACAATGTGTAGATATATT [XGTACX_site3195] | 8.88 ± 0.38
CACGCGCCCGGACACACACACACACCCATATATATA [CACACA_site5251] | 10.2 ± 0.57
